# Measurements as given in the supplement of paper PMC8728848.
# Some of the results follow.
# B1: HPL (Tachypleus tridentatus) (protein)
# chain: MEDDCTCVTDRSLEGKLMKHPSTPAVYQILDGCRRLVPNPPTYNNIYKNWECIQSNILEKLLCKCDSLSNGAELIKGSGDTVYLLSNGVKRPIADPETFNGFCFDWNKIKTYSDIVINSLSTGPIIIIKHHHHHH
# Columns and labels:
# Assay in all cases: glycan array binding signal (z-score within array); higher = stronger binding
# Details in all cases: glycan notation: IUPAC condensed, linker removed
# [1] = molecular target: Fuc(a1-2)Gal(b1-4)GlcNAc(b1-3)Gal(b1-4)GlcNAc(b1-3)Gal(b1-4)GlcNAc
# How it was run: (§1)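 The binding signal is a Z-score computed within each array and averaged over linkers. Arrays of the same protein sequence at different concentrations or buffers were also averaged together. Data originate from 3228 arrays in the Consortium for Functional Glycomics database, kept only where the protein sequence was available.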
# [2] = molecular target: Fuc(a1-2)Gal(b1-4)GlcNAc(b1-3)GalNAc
# How it was run: as §1
# [3] = molecular target: Fuc(a1-2)Gal(b1-4)GlcNAc(b1-3)[Fuc(a1-2)Gal(b1-4)GlcNAc(b1-6)]GalNAc
# How it was run: as §1
# [4] = molecular target: Fuc(a1-2)Gal(b1-4)GlcNAc(b1-3)[Fuc(a1-3)[Gal(b1-4)]GlcNAc(b1-6)]Gal(b1-4)Glc
# How it was run: as §1
# [5] = molecular target: Fuc(a1-2)Gal(b1-4)GlcNAc(b1-6)GalNAc
# How it was run: as §1
# [6] = molecular target: Fuc(a1-2)Gal(b1-4)GlcNAc6S
# How it was run: as §1
# [7] = molecular target: Fuc(a1-2)Gal(b1-4)[Fuc(a1-3)]GlcNAc
# How it was run: as §1
# [8] = molecular target: Fuc(a1-2)Gal(b1-4)[Fuc(a1-3)]GlcNAc(b1-2)Man(a1-3)[Fuc(a1-2)Gal(b1-4)[Fuc(a1-3)]GlcNAc(b1-2)Man(a1-6)]Man(b1-4)GlcNAc(b1-4)[Fuc(a1-6)]GlcNAc
# How it was run: as §1
# [9] = molecular target: Fuc(a1-2)Gal(b1-4)[Fuc(a1-3)]GlcNAc(b1-2)[Fuc(a1-2)Gal(b1-4)[Fuc(a1-3)]GlcNAc(b1-4)]Man(a1-3)[Fuc(a1-2)Gal(b1-4)[Fuc(a1-3)]GlcNAc(b1-2)Man(a1-6)]Man(b1-4)GlcNAc(b1-4)GlcNAc
# How it was run: as §1
# [10] = molecular target: Fuc(a1-2)Gal(b1-4)[Fuc(a1-3)]GlcNAc(b1-3)Gal(b1-4)[Fuc(a1-3)]GlcNAc
# How it was run: as §1
# [11] = molecular target: Fuc(a1-2)Gal(b1-4)[Fuc(a1-3)]GlcNAc(b1-3)Gal(b1-4)[Fuc(a1-3)]GlcNAc(b1-3)Gal(b1-4)[Fuc(a1-3)]GlcNAc
# How it was run: as §1
# [12] = molecular target: Fuc(a1-2)Gal(b1-4)[Fuc(a1-3)]GlcNAc(b1-3)GalNAc
# How it was run: as §1
# [13] = molecular target: Fuc(a1-2)Gal(b1-4)[Fuc(a1-3)]GlcNAc(b1-3)[Neu5Ac(a2-6)Gal(b1-4)GlcNAc(b1-6)]Gal(b1-4)Glc
# How it was run: as §1
# [14] = molecular target: Fuc(a1-2)Gal3S(b1-4)GlcNAc
# How it was run: as §1
# [15] = molecular target: Fuc(a1-2)Gal6S(b1-3)GlcNAc
# How it was run: as §1
# [16] = molecular target: Fuc(a1-2)Gal6S(b1-3)GlcNAc6S
# How it was run: as §1
# Fuc(a1-2)Gal6S(b1-4)Glc = molecular target: Fuc(a1-2)Gal6S(b1-4)Glc
# How it was run: as §1
# [17] = molecular target: Fuc(a1-2)Gal6S(b1-4)Glc6S
# How it was run: as §1
# Fuc(a1-2)[Gal(a1-3)]Gal = molecular target: Fuc(a1-2)[Gal(a1-3)]Gal
# How it was run: as §1
# [18] = molecular target: Fuc(a1-2)[Gal(a1-3)]Gal(b1-3)GalNAc
# How it was run: as §1
# [19] = molecular target: Fuc(a1-2)[Gal(a1-3)]Gal(b1-3)GalNAc(b1-3)Gal(a1-4)Gal(b1-4)Glc
# How it was run: as §1
# [20] = molecular target: Fuc(a1-2)[Gal(a1-3)]Gal(b1-3)GlcNAc
# How it was run: as §1
# [21] = molecular target: Fuc(a1-2)[Gal(a1-3)]Gal(b1-3)GlcNAc(b1-2)Man(a1-3)[Fuc(a1-2)[Gal(a1-3)]Gal(b1-3)GlcNAc(b1-2)Man(a1-6)]Man(b1-4)GlcNAc(b1-4)GlcNAc
# How it was run: as §1
# [22] = molecular target: Fuc(a1-2)[Gal(a1-3)]Gal(b1-3)GlcNAc(b1-2)Man(a1-3)[Fuc(a1-2)[Gal(a1-3)]Gal(b1-3)GlcNAc(b1-2)Man(a1-6)]Man(b1-4)GlcNAc(b1-4)[Fuc(a1-6)]GlcNAc
# How it was run: as §1
# [23] = molecular target: Fuc(a1-2)[Gal(a1-3)]Gal(b1-3)GlcNAc(b1-3)GalNAc
# How it was run: as §1
# [24] = molecular target: Fuc(a1-2)[Gal(a1-3)]Gal(b1-3)GlcNAc(b1-6)GalNAc
# How it was run: as §1
# [25] = molecular target: Fuc(a1-2)[Gal(a1-3)]Gal(b1-4)Glc
# How it was run: as §1
# [26] = molecular target: Fuc(a1-2)[Gal(a1-3)]Gal(b1-4)GlcNAc
# How it was run: as §1
# [27] = molecular target: Fuc(a1-2)[Gal(a1-3)]Gal(b1-4)GlcNAc(b1-2)Man
# How it was run: as §1
# [28] = molecular target: Fuc(a1-2)[Gal(a1-3)]Gal(b1-4)GlcNAc(b1-2)Man(a1-3)[Fuc(a1-2)[Gal(a1-3)]Gal(b1-4)GlcNAc(b1-2)Man(a1-6)]Man(b1-4)GlcNAc(b1-4)GlcNAc
# How it was run: as §1
binder,measurement,setting,value
B1,glycan array binding signal (z-score),[1],-0.284
same,glycan array binding signal (z-score),[2],-0.192
same,glycan array binding signal (z-score),[3],-0.28
same,glycan array binding signal (z-score),[4],-0.284
same,glycan array binding signal (z-score),[5],0.018
same,glycan array binding signal (z-score),[6],-0.195
same,glycan array binding signal (z-score),[7],-0.364
same,glycan array binding signal (z-score),[8],0.039
same,glycan array binding signal (z-score),[9],2.19
same,glycan array binding signal (z-score),[10],-0.324
same,glycan array binding signal (z-score),[11],-0.035
same,glycan array binding signal (z-score),[12],-0.045
same,glycan array binding signal (z-score),[13],-0.2
same,glycan array binding signal (z-score),[14],-0.264
same,glycan array binding signal (z-score),[15],0.027
same,glycan array binding signal (z-score),[16],-0.334
same,glycan array binding signal (z-score),Fuc(a1-2)Gal6S(b1-4)Glc,-0.084
same,glycan array binding signal (z-score),[17],-0.222
same,glycan array binding signal (z-score),Fuc(a1-2)[Gal(a1-3)]Gal,-0.314
same,glycan array binding signal (z-score),[18],-0.299
same,glycan array binding signal (z-score),[19],-0.302
same,glycan array binding signal (z-score),[20],-0.238
same,glycan array binding signal (z-score),[21],-0.163
same,glycan array binding signal (z-score),[22],0.577
same,glycan array binding signal (z-score),[23],-0.174
same,glycan array binding signal (z-score),[24],0.115
same,glycan array binding signal (z-score),[25],-0.003
same,glycan array binding signal (z-score),[26],-0.384
same,glycan array binding signal (z-score),[27],0.07
same,glycan array binding signal (z-score),[28],0.264
